Results are given in words; binding and its absence hold for the method and conditions named. In cells and extracts the contact can be indirect. Some entries that bind do so weakly or less than the wild type.

Chains of the proteins cited; added tags and fusions are not shown. Lines headed by an entry give the natural chain unless they say otherwise; changes in a name come on top. A line that says so, or that is headed by a name, gives the form on record, which may keep a tag or linker.
UniProt P08753: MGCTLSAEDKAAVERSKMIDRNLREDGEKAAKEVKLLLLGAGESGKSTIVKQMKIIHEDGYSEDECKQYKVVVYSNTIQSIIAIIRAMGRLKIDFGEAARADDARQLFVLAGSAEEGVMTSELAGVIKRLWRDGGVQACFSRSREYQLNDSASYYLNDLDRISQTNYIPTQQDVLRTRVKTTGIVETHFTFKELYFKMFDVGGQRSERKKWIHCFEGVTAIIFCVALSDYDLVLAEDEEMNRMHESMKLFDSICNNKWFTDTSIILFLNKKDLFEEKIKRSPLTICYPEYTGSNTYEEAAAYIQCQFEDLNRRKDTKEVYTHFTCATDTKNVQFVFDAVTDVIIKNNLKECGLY
myc-Daple full-length F1675A (FA) (Q9P219-1, form named): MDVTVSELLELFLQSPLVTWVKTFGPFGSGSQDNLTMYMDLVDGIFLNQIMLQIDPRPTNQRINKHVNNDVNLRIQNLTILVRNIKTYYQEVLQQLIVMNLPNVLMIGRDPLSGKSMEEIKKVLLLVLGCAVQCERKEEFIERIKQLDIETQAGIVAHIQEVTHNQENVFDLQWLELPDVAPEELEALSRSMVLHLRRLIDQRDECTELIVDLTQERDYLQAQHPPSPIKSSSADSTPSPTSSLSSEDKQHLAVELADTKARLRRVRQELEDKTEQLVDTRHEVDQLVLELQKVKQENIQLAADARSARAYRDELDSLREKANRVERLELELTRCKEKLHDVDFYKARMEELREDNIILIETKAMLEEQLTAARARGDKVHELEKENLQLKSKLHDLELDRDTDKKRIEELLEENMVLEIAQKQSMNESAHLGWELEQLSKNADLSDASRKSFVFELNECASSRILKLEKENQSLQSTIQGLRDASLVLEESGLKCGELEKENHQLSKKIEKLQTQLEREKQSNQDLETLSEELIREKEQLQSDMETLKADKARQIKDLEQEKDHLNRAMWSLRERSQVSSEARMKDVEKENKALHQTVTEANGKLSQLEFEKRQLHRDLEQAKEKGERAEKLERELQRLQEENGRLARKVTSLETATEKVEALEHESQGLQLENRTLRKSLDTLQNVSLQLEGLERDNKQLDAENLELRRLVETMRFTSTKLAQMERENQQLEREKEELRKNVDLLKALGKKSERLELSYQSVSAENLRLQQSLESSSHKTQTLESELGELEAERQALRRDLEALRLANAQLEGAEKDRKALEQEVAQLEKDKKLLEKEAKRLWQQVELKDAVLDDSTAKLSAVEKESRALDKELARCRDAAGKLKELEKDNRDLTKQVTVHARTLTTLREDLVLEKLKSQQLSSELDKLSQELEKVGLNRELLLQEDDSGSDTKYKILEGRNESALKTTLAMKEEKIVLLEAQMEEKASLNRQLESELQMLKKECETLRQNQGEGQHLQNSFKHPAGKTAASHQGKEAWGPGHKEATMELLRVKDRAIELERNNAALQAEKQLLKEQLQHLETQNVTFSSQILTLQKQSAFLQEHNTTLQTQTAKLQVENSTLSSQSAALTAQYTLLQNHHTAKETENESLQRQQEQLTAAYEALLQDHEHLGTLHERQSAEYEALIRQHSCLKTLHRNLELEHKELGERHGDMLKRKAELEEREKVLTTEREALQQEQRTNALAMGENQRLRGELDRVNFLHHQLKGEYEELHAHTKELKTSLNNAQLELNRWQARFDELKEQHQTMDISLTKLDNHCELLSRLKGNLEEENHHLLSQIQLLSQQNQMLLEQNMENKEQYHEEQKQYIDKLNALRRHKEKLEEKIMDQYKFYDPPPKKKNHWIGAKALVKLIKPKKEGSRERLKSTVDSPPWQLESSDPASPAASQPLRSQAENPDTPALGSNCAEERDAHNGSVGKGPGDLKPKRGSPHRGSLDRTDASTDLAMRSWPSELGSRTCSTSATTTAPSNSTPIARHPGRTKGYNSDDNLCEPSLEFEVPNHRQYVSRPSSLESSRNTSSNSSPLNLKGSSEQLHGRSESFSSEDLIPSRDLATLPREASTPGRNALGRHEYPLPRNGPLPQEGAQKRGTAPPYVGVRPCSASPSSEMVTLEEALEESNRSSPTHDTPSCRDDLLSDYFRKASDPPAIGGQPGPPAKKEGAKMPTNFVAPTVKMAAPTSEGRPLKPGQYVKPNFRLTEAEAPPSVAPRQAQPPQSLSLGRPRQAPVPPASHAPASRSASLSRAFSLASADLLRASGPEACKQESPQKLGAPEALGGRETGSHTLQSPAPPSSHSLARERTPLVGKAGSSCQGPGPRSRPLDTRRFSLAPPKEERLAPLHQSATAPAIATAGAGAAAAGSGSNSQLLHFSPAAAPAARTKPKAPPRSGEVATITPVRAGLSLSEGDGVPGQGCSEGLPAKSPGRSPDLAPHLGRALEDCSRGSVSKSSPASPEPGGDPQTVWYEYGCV

Assay [1] deals with GST-Gαi3 (rat) (UniProt P08753). The experiment in a line: pull-down; GST-Gαi3 preloaded with GDP (inactive) on glutathione beads; lysates (~250 µg) of Cos7 cells expressing myc-Daple constructs; 4 hr at 4°C; immunoblot for myc and Gβ; only the target purified. In general terms: Immunoblotting shows a protein as a band on a membrane.
Assay [2] deals with Gαi3-FLAG (rat) (UniProt P08753). The experiment in a line: co-IP; lysates of HEK293 cells expressing Gαi3-FLAG; anti-FLAG mAb or control IgG and protein G beads; immunoblot for endogenous Daple.
In assay [3] the target is GST-Gαi3 (rat) (UniProt P08753). As to the kind of experiment: condition: only GST-Gαi3 loaded with GDP + AlF4- (active); pull-down; as a5, but GST-Gαi3 preloaded with GDP + AlF4- (active); only the target purified.
The next assay addresses GST-FZD2-CT (mouse) (UniProt Q9JIP6). As to the kind of experiment: pull-down; GST-tagged FZDR cytoplasmic tails immobilised on glutathione beads; lysates of Cos7 cells expressing myc-Daple constructs and/or Dvl1; immunoblot; only the target purified.
In the next assay the target is GST-FZD1-CT (human) (UniProt Q9UP38). The assay is described as above.
Assay [4] concerns the target Gαi3-FLAG (rat) (UniProt P08753). As to the kind of experiment: co-IP; lysates of Cos7 cells expressing Gαi3-FLAG and myc-Daple WT or FA; anti-FLAG mAb and protein G beads; immunoblot for myc.

For “myc-Daple full-length F1675A (FA) (from UniProt Q9P219-1 1-2028)”, the binding result with GST-Gαi3 (rat) [1] was “no binding”.
Take “Daple (full-length endogenous) (from UniProt Q9P219-1 1-2028)”: the binding entry in the assay with Gαi3-FLAG (rat) [2] is given as “binds”.
For the substance “myc-Daple WT (full-length) (from UniProt Q9P219-1 1-2028)”, the binding entry is recorded as “no binding” with GST-Gαi3 (rat) [3]; “binds weakly” in the assay with GST-FZD2-CT (mouse); “binds weakly” in the assay with GST-FZD1-CT (human); “binds” in the assay with GST-Gαi3 (rat) [1]; “binds” in the assay with Gαi3-FLAG (rat) [4].

These data come from paper PMC4484057.
